# Assay results: the BET-seq Pho4 binding data (Le et al. 2018)
# This is one part of the list. The energies were worked out here from pooled read counts, against the library average; single values are noisy.
# Target: T1, Pho4 (S. cerevisiae) (UniProt P07270)
# T1 sequence: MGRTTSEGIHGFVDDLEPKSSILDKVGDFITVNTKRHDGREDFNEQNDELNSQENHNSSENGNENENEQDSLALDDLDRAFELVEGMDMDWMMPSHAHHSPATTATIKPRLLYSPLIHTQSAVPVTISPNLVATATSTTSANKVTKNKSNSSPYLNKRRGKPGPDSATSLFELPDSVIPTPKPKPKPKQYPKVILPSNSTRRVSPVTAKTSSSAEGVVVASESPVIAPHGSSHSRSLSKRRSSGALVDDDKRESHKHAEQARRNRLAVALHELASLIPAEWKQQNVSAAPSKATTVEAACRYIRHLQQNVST
# Test: relative binding free energy (BET-seq); higher = weaker binding
# Settings: reference: library average
row,Sequence,relative binding free energy [kcal/mol]
1,AGTGTCACGTGGTTTC,0.14
2,GTGATCACGTGTTGAT,0.01
3,GTTGTCACGTGTTGAT,0.06
4,AGGGGCACGTGTATGC,-0.14
5,TCTGGCACGTGTGCGG,0
6,CTAGTCACGTGTGGTG,0.01
7,GATAGCACGTGTAGGT,0.05
8,CGTTGCACGTGGAGGT,0.06
9,TATGGCACGTGATAGG,-0.15
10,GTGGACACGTGGGTAG,0.01
11,AAGTGCACGTGGCATT,-0.09
12,TGGCACACGTGAGTGT,0.27
13,GGTTGCACGTGGAGGG,-0.04
14,TGGCCCACGTGGGGGA,-0.32
15,AGGCTCACGTGGTGAT,0.05
16,TACATCACGTGATTGT,0.18
17,GGATACACGTGTGTAA,0.07
18,AGAGGCACGTGTAGAG,-0.1
19,TATTGCACGTGTATAT,-0.01
20,TGTCTCACGTGGAGAG,0.06
21,GGATACACGTGAGTGG,0.21
22,AGTTGCACGTGTTTAG,0.03
23,TCATTCACGTGCTGGT,0.27

row,Sequence,relative binding free energy [kcal/mol]
1,ATTGCCACGTGTTAGG,-0.16
2,TTTGTCACGTGAGGAT,0.3
3,AATATCACGTGTCGTG,0.1
4,CGGGTCACGTGGGTAC,-0.01
5,TAAATCACGTGTGGCG,0.24
6,AGGGACACGTGCTTGA,-0.07
7,AGTGACACGTGTGGTG,0.04
8,TGTATCACGTGGTTTG,0.11
9,GTAATCACGTGGGGGC,0.06
10,TTTTGCACGTGAGTGA,0.21
11,TTGGACACGTGATGTG,0.19
12,TTTTCCACGTGTTGTA,-0.01
13,AGAGGCACGTGGGGGG,-0.22
14,TTCGTCACGTGGGGCA,-0.13
15,TTCTGCACGTGGGGAT,-0.02
16,TGGTTCACGTGGGGGG,0.2
17,TGTTGCACGTGTATGA,0
18,TGTGGCACGTGCTACG,-0.2
19,TTTAACACGTGATGTT,0.25
20,TTAAACACGTGTGTAA,0.05
21,TAAAACACGTGATGGA,0.25
22,AGGTGCACGTGGTTGC,-0.07
23,TATGGCACGTGACAGT,-0.02

row,Sequence,relative binding free energy [kcal/mol]
1,GGAGACACGTGGTGCT,0.06
2,GGGCGCACGTGGATGA,-0.11
3,GAATGCACGTGTGTAT,0.21
4,GCTTTCACGTGAATGT,0.44
5,AGGGACACGTGTTACG,0.08
6,ATGTTCACGTGTCGGT,0.43
7,TACAGCACGTGTAGTT,-0.01
8,GGTGACACGTGGAGGT,0.05
9,AAAGGCACGTGCGTTT,-0.15
10,GCGTGCACGTGTTGTG,-0.06
11,TATAGCACGTGTGTGT,0.01
12,TCCTTCACGTGGTGTA,0.26
13,ATGTCCACGTGATATT,0.15
14,AGTATCACGTGGTGAG,0.06
15,GTTCTCACGTGGTGTG,0.19
16,TGGTACACGTGGAGCA,-0.03
17,GGCTTCACGTGGAGTA,0.22
18,CGTGGCACGTGTTGAT,-0.05
19,GTTAACACGTGTGCGT,0.14
20,ATTAACACGTGTTGGT,0.06
21,TGGTTCACGTGGGATG,0.28
22,TAGATCACGTGTGTTG,0.04
23,TGTTACACGTGATTGA,0.06

row,Sequence,relative binding free energy [kcal/mol]
1,GTTGACACGTGAATAG,0.06
2,GGCGTCACGTGTAAGG,0.26
3,TTTATCACGTGTGCAA,0.01
4,ACGGTCACGTGTTGAT,0.03
5,TGTTTCACGTGTCGCG,0.22
6,TTGTACACGTGTAGGA,0.05
7,TAGGACACGTGATAAG,0.15
8,TATGCCACGTGTGAAG,-0.04
9,GATGGCACGTGTTGAG,-0.02
10,ACTTGCACGTGGATTT,0.1
11,TGACGCACGTGGGGCC,-0.05
12,GGTATCACGTGTGAGG,0.33
13,AGCGTCACGTGTTGGG,-0.01
14,TTATGCACGTGCCGGA,0
15,TGATTCACGTGTGATG,0.28
16,AATGTCACGTGGATGA,0.11
17,GCTAGCACGTGGGGGA,-0.08
18,CGTTGCACGTGAATTT,0.26
19,TTTGACACGTGGTGAG,-0.02
20,GTGGTCACGTGTGGCG,0.09
21,GCTTGCACGTGGCGAG,-0.01
22,GTAGGCACGTGCTGCG,-0.1
23,ATGGACACGTGGCGAT,0.03

row,Sequence,relative binding free energy [kcal/mol]
1,TGAAGCACGTGAGGCT,0.14
2,TGACGCACGTGGTTTT,-0.2
3,TGGTTCACGTGTGGAA,0.32
4,AGTGTCACGTGATGTT,0.14
5,TCGATCACGTGGTGGG,0.13
6,ATAATCACGTGAGTAA,0.41
7,AAATTCACGTGGTTTC,0.38
8,GGTGCCACGTGTTTCG,0.08
9,ATTGCCACGTGTATGG,0
10,GGTGGCACGTGGGTTA,-0.21
11,AGATACACGTGTGGAT,0.13
12,TCTGGCACGTGATTGT,-0.01
13,TGTCGCACGTGCGGCG,-0.06
14,TTATTCACGTGTTTCT,0.24
15,GGAGTCACGTGGGTAA,-0.06
16,ATTTACACGTGGTTTG,0.16
17,TGGGTCACGTGTTTCG,0.21
18,GTTGGCACGTGTGACG,0
19,GGGATCACGTGGACTG,0.32
20,TTCTACACGTGGGTAT,0.11
21,TGAGACACGTGCTTGT,0
22,TGTTTCACGTGTTCGA,0.29
23,GTTGGCACGTGTAGAT,0.08
